According to PubChem BioAssay AID445 (National Center for Advancing Translational Sciences (NCATS), 2006):
Hit rate of the full screen: of about 110,000 compounds, about 40 (0.04%) were called active. The inconclusive results got no clear call from the source; some entries with a clear call stand among them for comparison. Calls follow the shape of the dose curve; as a rule, active = well fitted curve in the direction sought with a large enough effect in the signal ratio (not every such curve was filed as active); inconclusive = small, poorly fitted or top-dose-only effect, or a change in a side signal; inactive = flat fitted curve, though single readings scatter; the % refers to the signal ratio. Where the call is inconclusive, the potency comes from a doubtful curve fit.

Experiment: IkB Signaling;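 as to IkBa stabilization activation: 0% = basal untreated cells and 100% = reference inhibitor full response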
Details: ABC-DLBCL IkBa-CBG/CBR dual luciferase ratio (green luciferase fused to IkBa over red control in OCI-Ly3 lymphoma cells), 4 h; IkBa stabilization activation: at 57.1 µM (top of the series), scaled: untreated 0%, proteasome inhibitor 100% unless noted
Method in brief: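 In this assay, an IκBα–CBG68 fusion accumulates when IKK-driven degradation is blocked; native CBR normalizes for cell number. OCI-Ly3 cells were treated 4 h with compound and doxycycline, then green and red light read after Chroma-Glo addition.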
Potency is read from the fitted curve at half-maximal effect.

Question: For `COCCn1c(CCC(=O)Nc2cc(C)ccc2C)nc2cccnc21`, which IkBa stabilization activation is on record?
Answer: Its IkBa stabilization activation is “inactive”.

Question: For `COc1cccc(CNC(=O)c2cc3cccc4c3n2CC(C)S4)c1OC` (centres undefined), which IkBa stabilization activation is on record?
Answer: The IkBa stabilization activation was inconclusive: 1.1% [signal inhibitor].

Question: For `COc1cccc(C(=O)Nc2ccc(NC(=O)C(C)C)nc2)c1`, which IkBa stabilization activation is on record?
Answer: The IkBa stabilization activation was “inactive”.

Question: For `COc1cc2c(=O)c(S(=O)(=O)c3ccc(F)cc3)cn(Cc3ccccc3C)c2cc1OC`, which IkBa stabilization activation is on record?
Answer: The IkBa stabilization activation was inconclusive: -0.688% [signal inhibitor].

Question: With `Cc1ccc(-c2noc(-c3ccc(N4CCC(C)CC4)c([N+](=O)[O-])c3)n2)cc1` as the compound, how does the IkBa stabilization activation read?
Answer: Its IkBa stabilization activation is “inactive”.

Question: For `Cn1c(CNC(=O)CSc2n[nH]c(-c3ccccc3Cl)n2)nc2ccccc21`, which IkBa stabilization activation is on record?
Answer: The IkBa stabilization activation was “inactive”.

Question: With `O=C(CCC1CCCCC1)Nc1c2c(nn1-c1ccc(F)cc1)CS(=O)(=O)C2` as the compound, how does the IkBa stabilization activation read?
Answer: The IkBa stabilization activation was “inactive”.

Question: With `O=C(Nc1ccc(Cl)cc1F)c1oc(=O)c2ccccc2c1-c1ccccc1` as the compound, how does the IkBa stabilization activation read?
Answer: The IkBa stabilization activation was “inactive”.

Question: For `O=C(Cc1ccccc1)N(Cc1cccnc1)c1nc2c(F)cccc2s1`, which IkBa stabilization activation is on record?
Answer: The IkBa stabilization activation was inconclusive: 3.01% [signal inhibitor].

Question: For `COc1cccc(C(=O)NC2CC3CCCC(C2)N3CC(=O)Nc2ccccc2)c1` (centres undefined), which IkBa stabilization activation is on record?
Answer: Its IkBa stabilization activation is inconclusive: 6.98% [signal inhibitor].

Question: With `CCOc1cccc2cc(-c3cn4c(n3)sc3cc(C)ccc34)c(=O)oc12` as the compound, how does the Potency read?
Answer: Its Potency is inconclusive: 3.16 µM [signal inhibitor, full curve].

Question: With `COc1ccccc1CNc1cc(-c2ccccc2C)ncn1` as the compound, how does the IkBa stabilization activation read?
Answer: The IkBa stabilization activation was inactive: 12.9% [at 11.4 µM, scaled: untreated 0%, proteasome inhibitor 100%].

Question: For `COc1ccc(NC(=O)c2cc3n(n2)C(C(F)(F)F)CC(c2ccco2)N3)cc1` (centres undefined), which IkBa stabilization activation is on record?
Answer: The IkBa stabilization activation was “inactive”.

Question: Which IkBa stabilization activation does the source give for `Cc1cc(C)c2c(CC(=O)Nc3ccc(S(=O)(=O)N4CCCC(C)C4)cc3)coc2c1` (centres undefined) here?
Answer: Its IkBa stabilization activation is inconclusive: -0.327% [signal inhibitor].

Question: Which IkBa stabilization activation does the source give for `Cc1ccc(OCC(=O)Nc2cccc(OCc3cc(=O)n4ccccc4n3)c2)cc1C` here?
Answer: Its IkBa stabilization activation is inconclusive: 9.34% [signal inhibitor].

Question: With `COc1cccc(Nc2ncc3nc(C)c(=O)n(CCc4ccccc4)c3n2)c1` as the compound, how does the IkBa stabilization activation read?
Answer: Its IkBa stabilization activation is inactive: -8.47% [at 11.4 µM, scaled: untreated 0%, proteasome inhibitor 100%].

Question: With `CN(C)C(=O)c1ccc(-c2ccc3ncnc(NCc4cccnc4)c3c2)cc1` as the compound, how does the IkBa stabilization activation read?
Answer: Its IkBa stabilization activation is inactive: 1% [at 11.4 µM, scaled: untreated 0%, proteasome inhibitor 100%].

Question: Which IkBa stabilization activation does the source give for `Cc1cc(C)cc(OCCn2c(C3CC(=O)N(c4ccccc4Cl)C3)nc3ccccc32)c1` (centres undefined) here?
Answer: Its IkBa stabilization activation is inconclusive: -1.44% [signal inhibitor].

Question: For `O=C(Nc1nc2ccccc2s1)C1CCCO1` (centres undefined), which IkBa stabilization activation is on record?
Answer: Its IkBa stabilization activation is inconclusive: 6.14% [signal inhibitor].

Question: Which IkBa stabilization activation does the source give for `COc1ccc(CCNC(=O)CCn2c(=O)c3ccccc3n(CC(=O)Nc3ccccc3F)c2=O)cc1OC` here?
Answer: Its IkBa stabilization activation is inconclusive: 4.82% [signal inhibitor].

Question: For `CC(C)(C)c1ccc(C2Sc3ccccc3NC3=C2C(=O)c2ccccc23)cc1` (centres undefined), which IkBa stabilization activation is on record?
Answer: The IkBa stabilization activation was inconclusive: 4.58% [signal inhibitor].

Question: Which IkBa stabilization activation does the source give for `CCOC(=O)c1cc(S(=O)(=O)Nc2ccc(Br)c(C)c2)[nH]n1` here?
Answer: The IkBa stabilization activation was inconclusive: 3.75% [signal inhibitor].

Question: With `Cc1ccc2c(c1)c1c(c(=O)n(-c3cccc(Cl)c3)c(=O)n1CC(=O)N1CCCC1)n2C` as the compound, how does the IkBa stabilization activation read?
Answer: Its IkBa stabilization activation is inconclusive: 2.08% [signal inhibitor].

Question: Which IkBa stabilization activation does the source give for `CCOc1ccc(-n2c(SCc3nc(-c4ccc(OC)cc4)no3)nnc2-c2ccncc2)cc1` here?
Answer: The IkBa stabilization activation was “inactive”.

Question: Which IkBa stabilization activation does the source give for `COc1ccc(Br)cc1CNC(=O)c1cc2ccccn2n1` here?
Answer: Its IkBa stabilization activation is inconclusive: -0.401% [signal inhibitor].

Question: For `CCc1nnc(NC(=O)c2nc(S(=O)(=O)Cc3cccc(C)c3)ncc2Cl)s1`, which IkBa stabilization activation is on record?
Answer: The IkBa stabilization activation was “inactive”.

Question: With `Cn1c(CN2CCCCC2)nc2cc(NC(=O)c3cccc(Br)c3)ccc21` as the compound, how does the IkBa stabilization activation read?
Answer: The IkBa stabilization activation was inconclusive: 14% [signal inhibitor].

Question: For `CCn1cc(C(=O)NCCCOC(C)C)c(=O)c2cc(S(=O)(=O)N3CCc4ccccc4C3)ccc21`, which IkBa stabilization activation is on record?
Answer: Its IkBa stabilization activation is “inactive”.

Question: With `CC(C)(C)c1csc(NC(=O)c2cccs2)n1` as the compound, how does the IkBa stabilization activation read?
Answer: Its IkBa stabilization activation is inconclusive: 2.87% [signal inhibitor].

Question: For `CCC(C(=O)Nc1ccccc1C(=O)OC)n1c(C)c2cnn(-c3ccccc3)c(=O)c2c1C` (centres undefined), which IkBa stabilization activation is on record?
Answer: The IkBa stabilization activation was inconclusive: 0.844% [signal inhibitor].

Question: For `Cc1cc2n(n1)C(c1sccc1C)Nc1ccccc1-2` (centres undefined), which IkBa stabilization activation is on record?
Answer: Its IkBa stabilization activation is “inactive”.

Question: For `CCOc1ccccc1Oc1cn[nH]c1-c1ccc(OC)cc1O`, which IkBa stabilization activation is on record?
Answer: Its IkBa stabilization activation is inconclusive: 6.85% [signal inhibitor].

Question: Which IkBa stabilization activation does the source give for `COc1ccc(Cn2c(C(=O)O)c(CNCc3cccc(OC)c3)c3ccc(C)cc32)cc1` here?
Answer: Its IkBa stabilization activation is inconclusive: -0.00931% [signal inhibitor].

Question: For `O=C1c2oc3ccccc3c(=O)c2C(c2ccc(Br)cc2)N1c1ccccn1` (centres undefined), which IkBa stabilization activation is on record?
Answer: The IkBa stabilization activation was “inactive”.

Question: Which IkBa stabilization activation does the source give for `CCCCN(CC)CCNC(=O)Cn1cnc2sc(C)c(S(=O)(=O)N3CCC(C)CC3)c2c1=O` here?
Answer: Its IkBa stabilization activation is inconclusive: 2.84% [signal inhibitor].

Question: With `CCOc1ccc(NC(=O)CC2C(=O)N(c3ccccc3)C(=O)N2CCc2ccc(OC)cc2)cc1` (centres undefined) as the compound, how does the IkBa stabilization activation read?
Answer: The IkBa stabilization activation was “inactive”.

Question: Which IkBa stabilization activation does the source give for `COC(=O)c1cnn(-c2ccc(C(=O)Nc3cccc(C(C)=O)c3)cc2)c1N` here?
Answer: The IkBa stabilization activation was inconclusive: 3.19% [signal inhibitor].

Question: Which IkBa stabilization activation does the source give for `Cc1c(/C=N/n2cnnc2)c2ccccc2n1CCOc1ccc(Cl)cc1` here?
Answer: The IkBa stabilization activation was inconclusive: 5.46% [signal activator].

Question: With `O=C1CN(C(=O)Cc2ccc(F)cc2)C(c2ccccc2)c2cc(Br)ccc2N1` (centres undefined) as the compound, how does the IkBa stabilization activation read?
Answer: Its IkBa stabilization activation is inconclusive: 4.14% [signal inhibitor].

Question: For `CSc1nc(N)c2ncn([C@@H]3O[C@@H](COP(=O)(O)OP(=O)(O)OP(=O)(O)O)[C@@H](O)[C@H]3O)c2n1`, which IkBa stabilization activation is on record?
Answer: The IkBa stabilization activation was “inactive”.

Question: Which IkBa stabilization activation does the source give for `Cc1ccc(NC(=O)CN2CCC3(O)CCCCC3C2c2ccc3c(c2)OCO3)c(C)c1` (centres undefined) here?
Answer: The IkBa stabilization activation was inconclusive: -0.452% [signal inhibitor].

Question: For `CCOC(=O)c1[nH]c(C)c(CCC(=O)Nc2c(C)cc(C)cc2C)c1C`, which IkBa stabilization activation is on record?
Answer: The IkBa stabilization activation was “inactive”.

Question: Which IkBa stabilization activation does the source give for `CCCn1c(SCc2nc(-c3ccccc3C)no2)nnc1-c1ccc(Cl)cc1` here?
Answer: The IkBa stabilization activation was inconclusive: 0.67% [signal inhibitor].

Question: With `CCc1nn(CC(=O)N2CCN(c3cccc(C)c3C)CC2)c(=O)c2cc3occc3n12` as the compound, how does the IkBa stabilization activation read?
Answer: Its IkBa stabilization activation is “inactive”.
